Among all 3,200 compounds or so, about 110 (3.4%) showed an effect of 50% or more. The list shows a part of the results.
System: T1, V. cholerae SAD30
T1 construct: SAD30
Parameters: species or system S. aureus MSSA476 (TSB) or V. cholerae SAD30 (LB); 384-well bacterial growth screen at 25 uM, OD600 relative to DMSO control
Conditions: relative growth, OD600, LB; 25 µM; inhibitor

Compared with C=CC(=O)N1CCC(C(=O)NCc2cn3ccc(C)nc3n2)CC1 [3-D12, N-({7-methylimidazo[1,2-a]pyrimidin-2-yl}methyl)-1-(prop-2-enoyl)piperidine-4-carboxamide], C=CC(=O)N1CCC(C(=O)NC(C)(C)c2ccc(F)c(F)c2)CC1 [1-L04, N-[2-(3,4-difluorophenyl)propan-2-yl]-1-(prop-2-enoyl)piperidine-4-carboxamide] is higher in “% of control remaining” value: 99.3237% for the first, 117.272% for the second.

First: CCOc1ccc(C=C(C#N)C(=O)N2CCc3sccc3C2)cc1 [8-G22, 3-(4-ethoxyphenyl)-2-{4H,5H,6H,7H-thieno[3,2-c]pyridine-5-carbonyl}prop-2-enenitrile]
Second: CC1CN(C(=O)C(C#N)=Cc2ccc(OC(F)F)cc2)CC(C)O1 (stereo not shown) [8-G05, 3-[4-(difluoromethoxy)phenyl]-2-(2,6-dimethylmorpholine-4-carbonyl)prop-2-enenitrile]
The “% of control remaining” value of the first is higher: 82.3249% for the first, 76.3426% for the second.

Going from Cn1cc(C=C(C#N)C(=O)NCc2ccccc2)cn1 [8-J10, N-benzyl-2-cyano-3-(1-methyl-1H-pyrazol-4-yl)prop-2-enamide] to N#CC(=Cc1ccc2ccccc2c1)C(=O)NCc1ccccc1 [9-N11, N-benzyl-2-cyano-3-(naphthalen-2-yl)prop-2-enamide], the “% of control remaining” value rises from 68.8647% to 84.5003%.

Compared with C=CC(=O)NCc1oc(CC)nc1C [3-P15, N-[(2-ethyl-4-methyl-1,3-oxazol-5-yl)methyl]prop-2-enamide], C=CC(=O)NCc1cnoc1C [3-C22, N-[(5-methyl-1,2-oxazol-4-yl)methyl]prop-2-enamide] is higher in “% of control remaining” value: 104.44% for the first, 117.673% for the second.

Compared with COc1ccc(C(NC(=O)CCl)c2ccccc2)cc1 (stereo not shown) [4-J11, 2-chloro-N-[(4-methoxyphenyl)(phenyl)methyl]acetamide], O=C(CCl)Nc1cccc(Oc2ccccc2)c1 [4-P19, 2-chloro-N-(3-phenoxyphenyl)acetamide] is lower in “% of control remaining” value: 108.001% for the first, 96.6142% for the second.

Going from CC(Cl)C(=O)Nc1ccc(Cl)cc1C(F)(F)F (stereo not shown) [4-A14, 2-chloro-N-[4-chloro-2-(trifluoromethyl)phenyl]propanamide] to CC(Cl)C(=O)N(C)CCOc1ccc(Cl)cc1 (stereo not shown) [6-C12, 2-chloro-N-[2-(4-chlorophenoxy)ethyl]-N-methylpropanamide], the “% of control remaining” value falls from 102.825% to 74.0165%.

First: C=CC(=O)N1CCC(C(=O)N2CCOC(c3cccc(F)c3)C2)CC1 (stereo not shown) [2-L14, 1-{4-[2-(3-fluorophenyl)morpholine-4-carbonyl]piperidin-1-yl}prop-2-en-1-one]
Second: C=CC(=O)N1CCC(C(=O)N2CCOc3cc(F)ccc3C2)CC1 [3-E06, 1-[4-(8-fluoro-2,3,4,5-tetrahydro-1,4-benzoxazepine-4-carbonyl)piperidin-1-yl]prop-2-en-1-one]
The “% of control remaining” value of the first is lower: 86.1816% for the first, 91.3839% for the second.

Compared with C=CC(=O)Nc1ccc(S(C)(=O)=O)cc1OCC [2-C08, N-(2-ethoxy-4-methanesulfonylphenyl)prop-2-enamide], CS(=O)(=O)c1ccc(CNC(=O)CCl)cc1 [6-O12, 2-chloro-N-[(4-methanesulfonylphenyl)methyl]acetamide] is higher in “% of control remaining” value: 93.747% for the first, 95.2507% for the second.

Compared with CC(Cl)C(=O)N(C)CCn1c(=O)oc2ccccc21 (stereo not shown) [7-H15, 2-chloro-N-methyl-N-[2-(2-oxo-2,3-dihydro-1,3-benzoxazol-3-yl)ethyl]propanamide], CC(c1cccc(NC(=O)c2ccccc2)c1)N(C)C(=O)CCl (stereo not shown) [6-M22, N-{3-[1-(2-chloro-N-methylacetamido)ethyl]phenyl}benzamide] is higher in “% of control remaining” value: 82.4715% for the first, 100.559% for the second.

First: C[C@@H](NC(=O)CCl)c1cnnn1C [7-F16, 2-chloro-N-[(1R)-1-(1-methyl-1H-1,2,3-triazol-5-yl)ethyl]acetamide]
Second: O=C(CCl)NCc1coc(Cl)n1 [6-B04, 2-chloro-N-[(2-chloro-1,3-oxazol-4-yl)methyl]acetamide]
The “% of control remaining” value of the first is lower: 76.524% for the first, 95.2507% for the second.

Going from C=CC(=O)N(Cc1cc(-c2ccco2)n(C)n1)C1CCCCC1 [1-J15, N-cyclohexyl-N-{[5-(furan-2-yl)-1-methyl-1H-pyrazol-3-yl]methyl}prop-2-enamide] to C=CC(=O)N(Cc1c(F)cc(C)cc1Cl)C1CCCOCC1 (stereo not shown) [2-A13, N-[(2-chloro-6-fluoro-4-methylphenyl)methyl]-N-(oxepan-4-yl)prop-2-enamide], the “% of control remaining” value rises from 68.7593% to 81.8585%.

Going from CC(Cl)C(=O)N1CCC(Oc2cnc3ccccc3n2)CC1 (stereo not shown) [7-I18, 2-chloro-1-[4-(quinoxalin-2-yloxy)piperidin-1-yl]propan-1-one] to C=CC(=O)NCc1nc2ccccc2n1C1CC1 [2-N03, N-[(1-cyclopropyl-1H-1,3-benzodiazol-2-yl)methyl]prop-2-enamide], the “% of control remaining” value rises from 72.1626% to 105.172%.

First: O=C1C=CC(=O)N1c1cccc([N+](=O)[O-])c1 [10-P15, 1-(3-nitrophenyl)-2,5-dihydro-1H-pyrrole-2,5-dione]
Second: O=C1C=CC(=O)N1CCc1ccccc1 [10-E20, 1-(2-phenylethyl)-2,5-dihydro-1H-pyrrole-2,5-dione]
The “% of control remaining” value of the first is higher: 35.6906% for the first, 27.5862% for the second.

Compared with N#CC(=Cc1ccsc1)C(=O)Nc1ccc(Cl)cc1 [9-I06, N-(4-chlorophenyl)-2-cyano-3-(thiophen-3-yl)prop-2-enamide], COc1ccc(C=C(C#N)C(=O)Nc2ccc3c(c2)OCCO3)cc1O [8-H19, 2-cyano-N-(2,3-dihydro-1,4-benzodioxin-6-yl)-3-(3-hydroxy-4-methoxyphenyl)prop-2-enamide] is lower in “% of control remaining” value: 82.8688% for the first, 77.1584% for the second.

First: O=C(CCl)c1ccc(NC(=O)c2ccccc2)cc1 [10-B06, N-[4-(2-chloroacetyl)phenyl]benzamide]
Second: COC(=O)c1cccc(C(=O)CCl)c1 [10-I11, methyl 3-(2-chloroacetyl)benzoate]
The “% of control remaining” value of the first is lower: 21.5079% for the first, 32.4177% for the second.

Compared with C=CC(=O)NC[C@@H]1C[C@H](F)CN1Cc1csc(C)n1 [2-I09, N-{[(2S,4S)-4-fluoro-1-[(2-methyl-1,3-thiazol-4-yl)methyl]pyrrolidin-2-yl]methyl}prop-2-enamide], C=CC(=O)NCC1CCc2cccnc21 (stereo not shown) [3-M07, N-({5H,6H,7H-cyclopenta[b]pyridin-7-yl}methyl)prop-2-enamide] is higher in “% of control remaining” value: 90.6591% for the first, 94.9127% for the second.

First: C=CC(=O)NC1CCc2nc(CC)nn2C1 (stereo not shown) [1-G22, N-{2-ethyl-5H,6H,7H,8H-[1,2,4]triazolo[1,5-a]pyridin-6-yl}prop-2-enamide]
Second: C=CC(=O)NCC1(C)CCC(C)(C)CC1 [1-F22, N-[(1,4,4-trimethylcyclohexyl)methyl]prop-2-enamide]
The “% of control remaining” value of the first is lower: 105.979% for the first, 115.554% for the second.

First: O=C(CCl)Nc1c(Cl)cc(Cl)cc1Cl [5-B16, 2-chloro-N-(2,4,6-trichlorophenyl)acetamide]
Second: O=C(CCl)NCC1(c2ccc(F)cc2)CCCC1 [6-E18, 2-chloro-N-{[1-(4-fluorophenyl)cyclopentyl]methyl}acetamide]
The “% of control remaining” value of the first is higher: 98.3503% for the first, 85.2403% for the second.

Compared with CC1CN(C(=O)c2ccc(NC(=O)C(C)Cl)cc2)CC(C)O1 (stereo not shown) [7-E22, 2-chloro-N-[4-(2,6-dimethylmorpholine-4-carbonyl)phenyl]propanamide], NC(=O)CCc1ccc(C(=O)CCl)cc1 [10-I03, 3-[4-(2-chloroacetyl)phenyl]propanamide] is lower in “% of control remaining” value: 87.4938% for the first, 70.7578% for the second.

Compared with O=C(CCl)N(Cc1ccccc1)Cc1ccc(F)cc1 [5-I06, N-benzyl-2-chloro-N-[(4-fluorophenyl)methyl]acetamide], O=C(CCl)N(CC=Cc1ccccc1)c1ccc2c(c1)OCCO2 [4-G19, 2-chloro-N-(2,3-dihydro-1,4-benzodioxin-6-yl)-N-(3-phenylprop-2-en-1-yl)acetamide] is higher in “% of control remaining” value: 81.2021% for the first, 103.86% for the second.

First: C=CC(=O)NCc1nnc(C(F)(F)F)s1 [1-O14, N-{[5-(trifluoromethyl)-1,3,4-thiadiazol-2-yl]methyl}prop-2-enamide]
Second: C=CC(=O)N1CCN(C(=O)c2cc(C)no2)CC1 [1-N19, 1-[4-(3-methyl-1,2-oxazole-5-carbonyl)piperazin-1-yl]prop-2-en-1-one]
The “% of control remaining” value of the first is higher: 90.7324% for the first, 88.3408% for the second.

First: COc1ccc(C(=O)C(C)Cl)c(OC)c1 (stereo not shown) [10-J17, 2-chloro-1-(2,4-dimethoxyphenyl)propan-1-one]
Second: CC(Cl)C(=O)NCCS(=O)(=O)c1cccs1 (stereo not shown) [6-N15, 2-chloro-N-[2-(thiophene-2-sulfonyl)ethyl]propanamide]
The “% of control remaining” value of the first is higher: 98.0323% for the first, 94.0373% for the second.

Going from Cc1nc(C#N)c(N2CCN(C(=O)CCl)CC2)o1 [5-L18, 5-[4-(2-chloroacetyl)piperazin-1-yl]-2-methyl-1,3-oxazole-4-carbonitrile] to C=CC(=O)N(Cc1cccc(Cl)c1F)C(C)C1CCOCC1 (stereo not shown) [1-F04, N-[(3-chloro-2-fluorophenyl)methyl]-N-[1-(oxan-4-yl)ethyl]prop-2-enamide], the “% of control remaining” value rises from 96.3329% to 108.93%.

Reference: paper PMC11995724, “Antibiotic target discovery by integrated phenotypic and activity-based profiling of electrophilic fragments” (Cell chemical biology, 2025)
